Test results as given in PMC4336329 (PLoS ONE, 2015).
Among all 310,000 compounds or so, about 14,000 (4.5%) showed an effect of 50% or more. Effects have a minus sign here. The list shows a part of the results.

What follows are molecules tested against human ether-à-go-go-related gene (hERG) potassium channel (human, UniProt Q12809) (assay: primary screen, population patch clamp on CHO cells stably expressing hERG).
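Further: peak tail current of the secondary pulse compared with the same well before compound.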

Chain of human ether-à-go-go-related gene (hERG) potassium channel (Q12809 whole entry, looked up): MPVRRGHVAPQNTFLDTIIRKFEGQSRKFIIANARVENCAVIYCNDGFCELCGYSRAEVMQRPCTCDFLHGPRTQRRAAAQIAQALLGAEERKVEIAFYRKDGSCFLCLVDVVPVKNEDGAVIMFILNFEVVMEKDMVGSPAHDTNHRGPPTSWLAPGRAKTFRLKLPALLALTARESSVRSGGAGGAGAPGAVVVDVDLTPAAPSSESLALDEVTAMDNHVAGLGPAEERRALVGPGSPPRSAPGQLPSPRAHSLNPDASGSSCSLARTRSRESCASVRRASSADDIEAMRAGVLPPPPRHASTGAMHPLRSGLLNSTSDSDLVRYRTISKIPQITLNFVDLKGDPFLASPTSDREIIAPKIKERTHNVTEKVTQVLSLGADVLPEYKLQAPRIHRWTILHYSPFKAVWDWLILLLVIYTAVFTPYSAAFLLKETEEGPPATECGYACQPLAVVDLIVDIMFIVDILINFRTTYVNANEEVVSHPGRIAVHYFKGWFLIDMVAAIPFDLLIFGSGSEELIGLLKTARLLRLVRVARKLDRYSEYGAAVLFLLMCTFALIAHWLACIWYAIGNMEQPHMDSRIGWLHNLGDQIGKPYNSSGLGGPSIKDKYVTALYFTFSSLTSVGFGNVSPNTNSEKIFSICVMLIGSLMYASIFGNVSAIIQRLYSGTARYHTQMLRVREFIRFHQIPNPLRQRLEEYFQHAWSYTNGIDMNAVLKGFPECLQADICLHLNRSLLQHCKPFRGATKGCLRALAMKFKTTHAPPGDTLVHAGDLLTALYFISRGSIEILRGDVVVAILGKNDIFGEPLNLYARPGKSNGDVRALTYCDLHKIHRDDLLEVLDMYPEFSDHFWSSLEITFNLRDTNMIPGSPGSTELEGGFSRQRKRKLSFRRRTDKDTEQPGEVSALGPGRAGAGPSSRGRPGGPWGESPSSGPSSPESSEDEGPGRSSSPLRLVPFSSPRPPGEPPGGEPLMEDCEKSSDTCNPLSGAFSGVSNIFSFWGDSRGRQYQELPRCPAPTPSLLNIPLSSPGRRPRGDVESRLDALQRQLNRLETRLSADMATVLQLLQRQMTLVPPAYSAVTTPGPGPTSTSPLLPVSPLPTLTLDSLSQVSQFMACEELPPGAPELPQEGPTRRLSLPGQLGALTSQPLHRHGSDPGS

Structure (SMILES) | hERG current change (%, negative = inhibition) at 10uM
Br.N#CCC(=O)NN1Cc2ccccc2C1=N | 4.63%
CCOC(=O)C1=C(O)/C(=C\c2ccc(O)c(OCC)c2)N=C1C | 8.17%
Cc1ccc(NC(=O)/C(=C\c2cccc([N+](=O)[O-])c2)NC(=O)c2cccs2)cc1 | -1.85%
COc1cc2c(cc1NC(=O)CCC(=O)O)oc1ccccc12 | 18.5%
COc1cc(/C=C2/S/C(=N/S(=O)(=O)c3ccccc3)NC2=O)c([N+](=O)[O-])cc1OC | 15.7%
COc1ccc(C(=O)N(CC2CCCO2)C(C(=O)NC2CCCC2)c2ccc(Cl)cc2)cc1OC (stereo not shown) | -21.8%
CCC(=O)NC(=S)Nc1ccc(Cl)cn1 | 14.8%
CC(C)(C)c1ccc(C(=O)Nc2ccc(S(N)(=O)=O)cc2)cc1 | 8.19%
COc1ccc(CNCCc2ccc(Cl)cc2Cl)cc1 | -22.2%
C/C(Cn1cnc([N+](=O)[O-])n1)=N/NC(=O)COc1c(Cl)cc(Cl)cc1Cl | -31.4%
COc1ccc(NC(=O)NN2CCN(C)CC2)cc1 | 21.7%
COCCOC(=O)C1=C(C)NC(=O)NC1c1ccc(Cl)cc1 (stereo not shown) | -4.48%
CCOc1ccc(C(=O)NCC(=O)OC(C)C(=O)NCc2ccco2)cc1OCC (stereo not shown) | -5.53%
O=C(COc1ccc(Cl)cc1)Nc1cc(S(=O)(=O)N2CCCCC2)ccc1N1CCCCC1 | 14.6%
CCOC(=O)CCCn1ncn2c(cc3occc32)c1=O | -0.3%
O=C(Nc1c(C(=O)c2ccccc2)oc2ccccc12)c1cc(-c2ccccc2O)n[nH]1 | 9.34%
O=C(Nc1cccc(N2C(=O)C3CCCCC3C2=O)c1)c1ccccc1 (stereo not shown) | 11.1%
COc1ccc(CC(=O)OCC(=O)NC2CC2)cc1 | 7.68%
Cc1n[nH]c(=O)n1-c1ccc(C(C)C)cc1 | 18.4%
Cc1sc2ncn(CC(=O)NCC(=O)N3CCN(c4ccccc4F)CC3)c(=O)c2c1C | -24.4%
COc1ccc(-c2nnc(SCCC(=O)O)n2C)cc1OC | -6.37%
CCN(CC(=O)Nc1cc(Cl)ccc1C)C(=O)c1ccc(=O)n(Cc2ccccc2)n1 | -9.4%

Structure (SMILES) | hERG current change (%, negative = inhibition) at 10uM
O=C1C2C3C=CC(C3)C2C(=O)N1CCN1CCN(Cc2ccc([N+](=O)[O-])cc2)CC1 (stereo not shown) | -40.7%
CC(=O)Nc1ccc(OCC=C(Cl)Cl)cc1 | -9.09%
Cc1ccc(Sc2cnc3ccccc3n2)cc1 | -5.81%
Clc1cccc(-c2nc(NCCCN3CCOCC3)c3ccccc3n2)c1 | -10.1%
CCn1cc(/C=c2/sc3n(c2=O)C2c4ccccc4OC(C)(N=3)C2C(=O)OC)c(C)n1 (stereo not shown) | -24.1%
CC1CCCN(C(=O)COC(=O)c2cc(-c3cccs3)nn2-c2ccccc2)C1 (stereo not shown) | -28.9%
CN(CC(=O)Oc1ccc(-c2nnco2)cc1)S(=O)(=O)c1ccc(F)cc1 | -18.6%
COc1ccc(OC)c(NC(=O)CN2CCN(C(=O)c3ccco3)CC2)c1 | -23.7%
N#CC1(NC(=O)COC(=O)c2cc(O)c3ccccc3c2O)CCCCC1 | -7.56%
C=CCc1cc(/C=C2/NC(=O)NC2=O)cc(OCC)c1O | 20%
O=C(NCc1cn(-c2ccccc2)nc1-c1ccccc1)c1ccc([N+](=O)[O-])cc1 | -7.07%
COc1ccccc1CNC(=O)CS(=O)(=O)c1ccc(C)cc1 | -6.74%
O=C(CCNC(=O)c1ccc([N+](=O)[O-])cc1)Nc1ccc(S(=O)(=O)N2CCOCC2)cc1 | 2.67%
CCCN1C(=O)/C(=C/c2ccc(C)o2)SC1=Nc1ccc(OC)cc1 | -2.66%
O=C(COc1nsnc1N1CCOCC1)Nc1ccc([N+](=O)[O-])cc1 | 0.317%
CCOC(=O)c1ccc(/C=C2/C=C(c3ccccc3)N(c3ccc(Cl)c(C(=O)O)c3)C2=O)cc1 | 8.41%
CCCCCCCNC(=O)C1(CC2CC(c3ccc(Cl)cc3)=NO2)CCN(C(=O)C2CCCC2)CC1 (stereo not shown) | -55.8%
O=C(Cn1c(=O)oc2cc(S(=O)(=O)N3CCc4ccccc43)ccc21)NC1CCCC1 | -1.71%
CNC(=O)CSc1nnc(C(C)C)n1C | 2.47%
O=C(Cn1c(C(F)(F)F)nc2ccccc21)c1ccccc1 | 0.318%
CC(O)(c1ccccc1)C(c1ccccc1)C1CCCCN1 (stereo not shown) | -2.14%
Cc1ccc(O)c(Nc2nc(-c3ccccc3)nc3ccccc23)c1 | 14.9%

Structure (SMILES) | hERG current change (%, negative = inhibition) at 10uM
O=C(c1ccccc1)C(Cn1cncn1)C(Sc1ccccc1)c1ccccc1 (stereo not shown) | 9.47%
O=C(NCCC(=O)N1CCOCCOCCOCCOCC1)OCc1ccccc1 | 2.54%
O=C(Nc1nc(=O)c2ccccc2s1)c1ccc(Cl)cc1 | -0.334%
Cn1cccc1C(=O)NNC(=O)c1ccccc1Br | -8.49%
Cc1ccc(Cn2nc(C)c(NC(=O)CCCn3nc([N+](=O)[O-])c(Cl)c3C)c2C)cc1 | -50.7%
CC1=C(C(=O)N2CCCC(N3CCN(c4ccccc4C)CC3)C2)OCCO1 (stereo not shown) | 7.81%
CCN(CC(=O)Nc1ccccc1C(F)(F)F)C(=O)c1ccc2[nH]c3c(c2c1)CC(C)CC3 (stereo not shown) | 6.89%
CCc1nc(SCc2ccccc2C)n[nH]1 | 26.9%
COc1ccc(C(C(=O)NC2CCCCC2)N(C(=O)CCl)c2cccc(Cl)c2)cc1 (stereo not shown) | 13.5%
CCOC(=O)Cc1csc(NC(=S)NC(=O)c2cc(OC)c(OC)c(OC)c2)n1 | 2.14%
O=C(COC(=O)C1CC(=O)N(C2CCCCC2)C1)c1ccc(F)cc1 (stereo not shown) | -31%
O=C(CN1C(=O)c2ccccc2C1=O)N1CCN(c2nnc(-c3ccccc3)c3ccccc23)CC1 | 5.5%
N#Cc1ccccc1OCC(=O)OCC(=O)Nc1ccc2c(c1)OCO2 | 2.79%
Cc1ccc(CN=c2c([N+](=O)[O-])nn(-c3cccc(C)c3)n2O)cc1 | -32.7%
CCN1CCCC1CNC(=O)CCc1nnc(CCC2CCCCC2)o1 (stereo not shown) | -16%
Fc1ccc(CSc2nnc(-c3cccnc3)o2)cc1 | 5.24%
COc1cccc(NC(=O)c2ncn[nH]2)c1 | 3.76%
COc1nc(C)nc(NC(=O)NS(=O)(=O)c2ccc(C)cc2)n1 | 0.939%
Nc1ccc(C(=O)OCc2nc3ccccc3s2)cc1 | -16.5%
Cc1ccc(NC(=O)NNC(=O)C2CCN(Cc3ccc(F)cc3Cl)CC2)cc1 | 7.27%
CCC(C)NC(=O)CSc1nc2c(sc(=S)n2Cc2ccco2)c(=O)n1-c1ccccc1 (stereo not shown) | -9.99%
COc1ccc(C2C(C)C3(O)CC(C#N)(C(=O)N3)C2(C#N)C#N)cc1 (stereo not shown) | 10%

Structure (SMILES) | hERG current change (%, negative = inhibition) at 10uM
CN(CC1CCOCC1)C(=O)CC1C(=O)NCCN1Cc1ccc(-c2ccccc2)cc1 (stereo not shown) | -8.41%
CC(C)Cn1c(=O)c2ccccc2n2c(SCC(=O)N3c4ccccc4CC3C)nnc12 (stereo not shown) | -7.91%
CCOC(=O)c1c(S(=O)(=O)NCC(=O)NCc2ccc(C)cc2)c(C)n(C)c1C | 14.2%
COc1ccc(NC(=O)C2CC(=O)N(CCc3ccc(F)cc3)C2)c(OC)c1 (stereo not shown) | -18.7%
CCCOc1ccc(C(CC(=O)O)NC(=O)c2ccc3c(c2)OCO3)cc1 (stereo not shown) | 10.6%
Nc1ccc(C(=O)NCc2ccccc2)cc1 | 7.89%
CCOCC(=O)Nc1ccc(S(=O)(=O)Nc2nccs2)cc1 | 2.41%
O=C(CSCc1cccs1)N1CCCC1 | 11%
Cc1cc(C)n(CCCO)c(=O)c1C#N | 5.48%
Cc1cc(-n2c(SCc3ccccc3F)nc3n[nH]c(C)c3c2=N)ccc1Cl | 15.8%
CC(NC(=O)c1cn(C)c2ccc(S(=O)(=O)N3CCCC3)cc2c1=O)c1ccccc1 (stereo not shown) | 10.6%
CC(NC(=O)c1ccc(C#N)cc1)C1CC2CCC1C2 (stereo not shown) | -58.8%
CCCCCCCCCCCNC(=O)c1ccoc1C | -7.37%
COc1ccc(S(=O)(=O)NCC2CCC(C(=O)NCC(OC)OC)CC2)cc1 (stereo not shown) | 20.7%
C=CCOc1c(Cl)cc(CNc2ccc(C)c(Cl)c2)cc1OC | 9.93%
COc1ccc(OC)c(/C=C/C(=O)c2ccc3c(c2)OCO3)c1 | 7.67%
O=c1c2ccccc2c(-c2ccccc2)nn1Cc1ccccc1 | 7.29%
COc1ccccc1C(C)NC(=O)c1ccccc1SCC(=O)N1CCCC1 (stereo not shown) | -2.12%
Cc1csc(N2CCN(c3cc4nc(-c5ccncc5)[nH]c4cc3Cl)CC2)n1 | 9.18%
C/C(=N\OC(=O)c1ccccc1F)c1nccs1 | -6.6%
COc1cc(C(=O)N/N=C/c2ccsc2C)cc(OC)c1OC | -9.66%
C=CCNC(=O)c1c(Cl)cccc1Cl | 12.8%
